Over roughly 33,000 sequences, “E-score (dimensionless, -0.5 to 0.5)” has its median near -0.058; the highest 2% begin near 0.35. This is one part of the list.
Test system: MvaT
Assay: PBM 8-mer E-score (mean of HK and ME arrays) (E-score (dimensionless, -0.5 to 0.5)); higher = stronger relative binding preference; most listed sequences are background and not binding sites
Procedure: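 Protein binding microarray: GST-tagged full-length MvaT (P. aeruginosa PAO1) bound to two universal double-stranded 60-mer arrays (ME and HK), each with a constant 25-mer primer and a variable 35-mer region covering all 8-mers. The 8-mer E-score (rank-based, range -0.5 to 0.5, >0.45 = specific binding) is the mean of the two arrays.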

Sequence | PBM 8-mer E-score
AAAACTAA | 0.285
GCATTCCA | -0.209
ATGAATCC | 0.136
CTGATGCA | -0.137
AAGCTTAT | 0.219
AGATGGGC | -0.115
TAGTAATA | 0.352
ACTACCAT | 0.116
ACTAGGGA | -0.0429
CTCGGTAA | -0.0418
AGATATCT | 0.306
AACAACAC | -0.00641
AAGAGACT | -0.04
CCATTCGG | -0.177
AACATTAC | 0.234
CGAAACCA | -0.0747
ACCGATAT | 0.298
CATCAATA | 0.181
ACGCCGAA | -0.0701
CGAACCCG | -0.123
CAATAGGA | -0.107
ACAAACGC | -0.0457
CTATCCGC | 0.0675
GACCCAGC | -0.26
CTTATTGA | 0.22

Sequence | PBM 8-mer E-score
CAGGTCGG | -0.319
ACCACTTA | 0.159
GCAGGAGA | -0.113
CAGCCATC | -0.234
AGCGGGCG | -0.323
ATACTACG | 0.0865
AGATTCTA | 0.102
ACCCGTAT | -0.0154
GCGTCTAC | -0.0397
AGGCTTAG | -0.104
GCAAGGAA | -0.184
AATTAAAC | 0.382
CAAAGTAC | 0.154
CACGAATA | 0.168
GGAGCTCA | -0.209
ATTGCTAG | 0.0803
ACAGGCTC | -0.2
AGCGTGGA | -0.0231
CGGTTCAA | 0.0411
GGGGTAAC | -0.0939
GCCAGGGA | -0.273
ATCACAAA | 0.139
AACATCGA | 0.151
CACAGCCG | -0.0685
AGTCCTTA | -0.0536

Sequence | PBM 8-mer E-score
CCGTTAAA | 0.254
CTCAGAAC | -0.17
ATACTGTC | 0.0689
CTCCTGCA | -0.17
AGGCGCGC | -0.25
AGAAGTCA | -0.117
AGAGAACG | -0.171
ATGTTTAA | 0.391
CGACAGAA | 0.0376
ACAAAGGG | 0.0162
CGGCTACG | -0.245
GAGTCTAA | 0.0971
GCTTTCAA | -0.0697
CGTGCCAC | -0.209
CATCCGAG | -0.147
CGTGTTAA | 0.21
GGCACACA | -0.0231
AGTAGGGA | 0.0467
ATCTCCTC | -0.247
CTACGCTC | -0.112
GCTCTGTA | -0.178
AGTAAAAA | 0.251
AGCCTCAC | -0.158
CCGAATGA | -0.037
CGGCGCAC | -0.189

Sequence | PBM 8-mer E-score
AATGAACC | -0.0199
ACCACCGT | -0.155
AATATTCC | 0.375
ACGGGGGG | -0.169
AAATAATT | 0.438
ATTTTGCG | 0.195
GCGCCCCC | -0.301
CCGTCGAG | -0.198
AAGGGTTA | -0.0484
GGTGCTTA | -0.0393
ACTCTATC | -0.0304
ATACGTTC | 0.0708
CAAATCGA | 0.0462
ACAGTACG | 0.0527
GATACGAA | 0.094
GACGCCGC | -0.279
ACCCGGCA | -0.264
CCGCAATA | 0.149
CAACAAAG | 0.214
CGATGAGC | -0.259
AATAGTAC | 0.207
ATCGGGCG | -0.0541
ATGCGCAT | 0.102
GCGTGAAC | -0.168
AAGGTGGC | 0.0712

Sequence | PBM 8-mer E-score
CTATGAAG | -0.0683
CGTTTGAA | 0.0915
CGTACGAG | -0.177
CCCCGGGC | -0.329
CTGTGGAC | -0.212
CAAGGCAC | -0.14
GTAGTTCA | 0.052
AAGCACTG | -0.186
TATAAGCA | 0.317
GTACCTGA | -0.0333
AGATATTG | 0.191
AACTCCTA | 0.162
CCGTTTGC | -0.0761
GAGGACTC | -0.279
CCAGCTTA | -0.0676
AATATAAG | 0.351
GGCAGAGA | -0.15
CACCGGCG | -0.229
AATACTGT | 0.215
AACCTGAT | 0.0816
AACTGCAT | -0.0229
TGACGCAA | -0.0302
ACGAATCA | -0.0134
CGGCCATC | -0.331
AATATGCT | 0.168

Sequence | PBM 8-mer E-score
CAATCCTC | -0.18
AGTGGGGG | -0.209
AGAAGTTG | 0.212
ATGGAGCC | -0.112
TAATGTGA | 0.213
ATCAGGAT | -0.129
CTTCAAAG | 0.0135
CAGTCCAC | -0.134
CCAGGTAG | -0.0622
CGACGTAG | -0.247
ATGTACAG | 0.197
CAATTCGA | -0.0452
GCTTATCC | -0.143
ATCCGGTA | -0.0602
AGAATTTC | 0.122
ATGTCCAG | -0.103
AGAGATGC | -0.101
ATCCGGAT | -0.0634
ACATCAAA | 0.0331
CCAAAGGA | -0.213
ACCGTACG | -0.216
GGATCGAC | -0.378
ACAACCCT | 0.0272
ATTTGAAA | 0.214
CTACCAAC | 0.0568

Sequence | PBM 8-mer E-score
ACTCAACA | 0.0764
GGACCGCA | -0.309
CGTGAGGA | -0.241
AGACGCAG | -0.221
CTTACCGC | -0.0868
GCCAATGA | -0.169
GACGCTGC | -0.183
AGTTACCC | 0.0919
ACTAAAGA | 0.173
CAGTTTTA | 0.196
ACCCTAGA | -0.125
CGTATGAC | -0.15
ATAATCAG | 0.229
CATGGGTA | -0.0822
GATGAAGC | -0.136
GGCTCGAA | -0.186
TCTACCCA | 0.0193
GAGGACCC | -0.181
GTCTGGTA | -0.11
ATTGACAA | 0.263
TATACCGA | 0.321
CCAGCAAA | -0.165
AAATTTGC | 0.134
AAATACTA | 0.383
CACGTAAG | -0.118

Sequence | PBM 8-mer E-score
CCGCTGTC | -0.107
AAGCCTGC | -0.198
CGAGTCCC | -0.298
ACATTGTC | 0.116
AAACCCAC | 0.0587
ACCTAGCG | -0.205
ATAGCTGG | -0.188
AGGGGCGG | -0.27
CAATAGGG | 0.0309
CACGTGCG | -0.179
CACCTCCA | -0.174
CTTGTTGC | 0.143
ATTAGCCG | 0.0563
TAACAACA | 0.223
ACCATAGC | -0.041
AAAAGCAC | 0.055
ACACGTTA | 0.0219
AAAAATTC | 0.161
AAGCCAAG | -0.0756
CATCGATG | -0.0261
ATAGTACG | 0.146
CAATGATC | 0.048
ATTGGACA | 0.0416
CACACGGA | -0.149
GGGCTACC | -0.255

Sequence | PBM 8-mer E-score
CTGCGACA | -0.24
CCTTACCG | -0.129
ATATTGTA | 0.376
CTCAAGAG | -0.286
AGCTCTAA | -0.0435
AGCATGCA | -0.2
CACTAATA | 0.323
AGACACCT | -0.162
ATAGTTAG | 0.266
TAGGATGA | -0.13
GTATTGTA | 0.248
ATGTAGAC | 0.106
ACCGCAGC | -0.137
ACGCAGAA | -0.113
ACAATTGA | 0.193
GTTTAAGA | 0.246
CCCGCTCG | -0.242
AGTTTGAA | 0.265
CTCTCAGC | -0.286

— the supplement of paper PMC4466236
